Laboratory results from publication PMC4336329 (PLoS ONE, 2015).
Hit rate of the full screen: of about 310,000 compounds, about 2,200 (0.71%) showed an effect of 50% or more. The effect is printed as a negative number. The list shows a part of the results.

target: human ether-à-go-go-related gene (hERG) potassium channel (human, UniProt Q12809); experiment: primary screen, population patch clamp on CHO cells stably expressing hERG
Sequence (Q12809 whole entry, looked up): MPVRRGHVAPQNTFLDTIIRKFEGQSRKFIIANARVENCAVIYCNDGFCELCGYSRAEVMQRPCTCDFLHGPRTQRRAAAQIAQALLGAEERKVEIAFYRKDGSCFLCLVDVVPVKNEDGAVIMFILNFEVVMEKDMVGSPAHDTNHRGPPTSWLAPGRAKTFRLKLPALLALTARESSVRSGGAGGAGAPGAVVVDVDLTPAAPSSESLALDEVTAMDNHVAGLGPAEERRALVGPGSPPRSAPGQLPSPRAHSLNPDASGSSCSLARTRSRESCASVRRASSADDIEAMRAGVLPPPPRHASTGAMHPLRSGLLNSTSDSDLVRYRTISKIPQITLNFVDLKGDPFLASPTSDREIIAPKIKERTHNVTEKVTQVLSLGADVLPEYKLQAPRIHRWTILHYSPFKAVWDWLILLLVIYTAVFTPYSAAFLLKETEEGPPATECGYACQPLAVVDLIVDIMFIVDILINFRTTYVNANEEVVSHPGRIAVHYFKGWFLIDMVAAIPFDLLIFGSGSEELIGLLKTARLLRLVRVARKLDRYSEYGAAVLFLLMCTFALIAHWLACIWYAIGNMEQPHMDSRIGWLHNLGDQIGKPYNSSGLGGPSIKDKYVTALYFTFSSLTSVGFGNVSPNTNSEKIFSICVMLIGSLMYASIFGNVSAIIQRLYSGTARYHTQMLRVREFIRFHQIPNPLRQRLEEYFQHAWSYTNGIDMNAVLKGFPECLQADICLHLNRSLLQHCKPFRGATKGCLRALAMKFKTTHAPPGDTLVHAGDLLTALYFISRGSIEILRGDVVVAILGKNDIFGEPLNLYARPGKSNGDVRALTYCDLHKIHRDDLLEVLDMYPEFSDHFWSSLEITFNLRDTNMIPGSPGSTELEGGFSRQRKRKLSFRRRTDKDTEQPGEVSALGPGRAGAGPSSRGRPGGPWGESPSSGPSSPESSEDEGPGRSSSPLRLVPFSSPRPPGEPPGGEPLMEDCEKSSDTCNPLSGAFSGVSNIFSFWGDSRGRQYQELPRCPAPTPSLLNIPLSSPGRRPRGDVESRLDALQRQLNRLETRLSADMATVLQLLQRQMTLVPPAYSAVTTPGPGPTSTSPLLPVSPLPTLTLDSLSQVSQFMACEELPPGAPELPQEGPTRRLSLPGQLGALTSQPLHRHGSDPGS

SMILES | hERG current change (%, negative = inhibition) at 1uM [%]
CCCN(CCO)Cc1ccc2ccccc2c1 | 2.91
CCOC(=O)c1ccc(NC(=S)N(CCCN2CCCCCC2)Cc2ccco2)cc1 | -31.7
O=C1C(NS(=O)(=O)c2ccc(Cl)cc2)=C(N2CCCCC2)C(=O)c2ccccc21 | 5.63
CC1(C)NC(=O)N(CC(=O)OCC(=O)c2ccc(F)cc2)C1=O | -1.22
CCC(=O)Nc1cccc(NC(=O)c2cccnc2)c1 | 11.6
COc1ccc(CCNC(=O)COC(=O)CCC(=O)c2ccc(F)cc2)cc1 | 11.4
COc1cccc(CC(=O)N(C)C2CCCN(Cc3ccccc3F)C2)c1 (stereo not shown) | 8.16
CC(C)=CCc1cc([C@@H]2COc3c(ccc4c3C=CC(C)(C)O4)C2)c(O)cc1O | 4.34
COc1ccc(CCNC(=O)COC(=O)/C=C/c2cccs2)cc1 | 22.4
COC(=O)c1ccc(CSc2ncnc3c2nnn3-c2ccc(OC)cc2)o1 | 5.87
Cc1cc(C)cc(NC(=O)[C@H](Cc2c[nH]c3ccccc23)NC(=O)[C@@H]2Cc3ccccc3CN2)c1 | 10.2
O=C(c1cc(Cl)ccc1F)N1CCCC(Nc2ccc3c(c2)OCCO3)C1 (stereo not shown) | 0.817
CN(CC(=O)Nc1ccc(Cl)c(C(F)(F)F)c1)C(=O)CCNC(=O)c1ccco1 | -4.26
COc1cc(OC)c(C2N(c3cc(C)on3)C(=O)C3CCCN32)cc1OC (stereo not shown) | 15.5
CC(=O)OCC(OC(C)=O)C(OC(C)=O)C(OC(C)=O)C(=O)Nc1ccccc1 (stereo not shown) | 12.1
CCOC(=O)C1CCCN(C(=O)c2cn(C)c(=O)c3cc(OC)c(OC)cc23)C1 (stereo not shown) | 10.2
Cc1cccc(C)c1NC(=O)CSc1nc(C)c(CC(=O)c2ccc(Br)cc2)c(C)c1C#N | 4.03
Cc1ccccc1Nc1nc(N)nc(CN2CCN(C(=O)c3ccccc3)CC2)n1 | -1.31
CCc1ccc(NC(=O)N(C2CCC(C)CC2)C2CCN(C(C)=O)CC2)cc1 (stereo not shown) | 7.35
CC(C)(C)NC(=O)CSc1nnc(SCC(=O)NC(C)(C)C)s1 | 29.9
OC1(c2ccccc2F)CCN(Cc2nnc(-c3ccccc3)o2)CC1 | 11
Cc1cccc(C)c1NC(=O)Cn1nnc(C(=O)Nc2ccc(F)cc2F)c1N | 14.4

SMILES | hERG current change (%, negative = inhibition) at 1uM [%]
CC(C)CNC(=O)CN(C)S(=O)(=O)c1ccc(F)cc1 | 3.41
CC(C)(C)N(Cc1ccccc1)C(=O)COC(=O)c1cccc([N+](=O)[O-])c1 | 4
c1ccc(SCc2nc3ccccc3[nH]2)nc1 | 20.3
O=C(Nc1ccccc1F)c1ccc(S(=O)(=O)N2CCCCCC2)cc1 | 12.7
O=c1[nH]c(C2C3CC4CC(C3)CC2C4)nc2ccccc12 (stereo not shown) | 6.8
CC1CN(S(=O)(=O)c2cccc3nsnc23)CC(C)O1 (stereo not shown) | 6.75
O=C(NCc1ccccc1)C(c1ccc(F)cc1)N(Cc1ccc2c(c1)OCO2)C(=O)Cn1nnc(-c2cccs2)n1 (stereo not shown) | 3.61
O=C(OCc1nc2ccc(Cl)cc2n1CCO)c1ccc2c(c1)OCO2 | 7.96
COc1ccc(N2CCN(Cc3nc(-c4ccccc4)no3)CC2)cc1 | 3
CSc1nc2ccccc2n1C(=O)NC1CCCCC1 | 9.3
CCN(Cc1nc2ccccc2n1C)c1ccccc1 | 2.77
CCCC(=O)Nc1nn(CCC)c2nc3ccccc3cc12 | 1.8
CCn1ncc(C2=NOC(C(=O)NCc3ccc(Cl)cc3)C2)c1C (stereo not shown) | -1.6
COc1ccc(S(=O)(=O)N(C)CC(=O)NCCCN2CCOCC2)cc1Cl | 7.42
Clc1c(-c2ccccc2)nc2ccccn12 | 6.13
COc1ccc(-c2noc(CNC(=O)Nc3ccc(F)cc3)n2)cc1 | 4.52
O=C(c1cn(Cc2ccccc2)c2ccccc12)C1CC1 | -6.68
N#Cc1ccc(CSc2ncccn2)cc1 | 6.56
Cc1ccc(SCCC(=O)N2CCN(S(=O)(=O)c3ccccc3)CC2)cc1 | -0.0008
Cc1cccc(/C=N/NC(=O)c2ccncc2)n1 | 16.4
Cc1ccc(O)c(-c2cc(C(=O)Nc3ccc(S(=O)(=O)N4CC(C)OC(C)C4)cc3)[nH]n2)c1 (stereo not shown) | 9.38
O=C1C(Cl)=CC(=Nc2ccc([O-])cc2)C=C1Cl.[Na+] | 0.505

SMILES | hERG current change (%, negative = inhibition) at 1uM [%]
CC1CN(C(=O)c2cc(S(=O)(=O)N3CCN(c4ccccc4)CC3)ccc2Cl)CC(C)O1 (stereo not shown) | -5.44
CN(C)c1ccc(/C=[N+](\[O-])C2N(c3ccccc3)C(=S)SC2(C)C)cc1 (stereo not shown) | -6.26
COC(=O)N/N=C(\CCC(=O)O)c1cccs1 | 13.2
COc1ccccc1NC(=O)Cc1nnc(SCC(=O)Nc2nccs2)n1C | 15.5
O=C(N[C@@H](Cc1ccccc1)C(=O)O)c1cccs1 | 19.5
N/C(=N\OC(=O)COc1ccc(Cl)cc1)c1ccc(Cl)cc1 | 12.8
CCCc1c(O)nc(SC2CC(=O)N(c3ccc(OC)cc3)C2=O)[nH]c1=O.Cl (stereo not shown) | 7.53
CC(=O)c1cccc(CN2CCN(C3CCCC3)C(CCO)C2)c1 (stereo not shown) | -0.585
CN(C)S(=O)(=O)N1CCC(Oc2ccc(C(=O)NC3Cc4ccccc4C3)cc2)CC1 | 13.4
O=C1CC(SC2=NCCS2)C(=O)N1c1cccc(Cl)c1Cl (stereo not shown) | 13.8
O=C(COC(=O)Cn1cnc2ccccc21)Nc1cc2c(cc1Cl)C(=O)c1ccccc1C2=O | 17.2
CCC(C)N(NC(C)=O)c1nc(Cl)nc(NC(C)C)n1 (stereo not shown) | -8.28
CCOc1ccccc1C=Nc1ccccc1C(=O)Nc1ccccc1 | -3.74
CNC(=S)NNC(=O)c1ccccc1Br | 15.2
COC(=O)c1sc(-c2ccc(C(C)(C)C)cc2)cc1NC(=O)c1ccccc1C(=O)O | 3.25
COc1cc(C2c3c(oc4ccccc4c3=O)C(=O)N2Cc2ccncc2)ccc1O (stereo not shown) | 4.07
Cc1ccc(/C=C2/Sc3ccccc3N(CC(=O)NCCCOC(C)C)C2=O)cc1 | 1.52
COc1ccc(C(CC(=O)N2CCCC2)c2c(OC)cc(OC)c3ccc(=O)oc23)cc1 (stereo not shown) | 8.69
CCCc1cc(=O)oc2c(CN3CCOCC3)c(O)ccc12 | 6.31
COc1cccc(/C=N/NC(=O)c2cccc([N+](=O)[O-])c2)c1OS(=O)(=O)c1ccccc1 | -3.73
CCOC(=O)C1CN(S(=O)(=O)c2ccc(Cl)cc2)c2cc(S(=O)(=O)CC)ccc2O1 (stereo not shown) | -1.55
COc1ccc(-c2nc(-c3cccs3)no2)cc1 | 12.4

SMILES | hERG current change (%, negative = inhibition) at 1uM [%]
O=C(CCCCCn1c(=S)[nH]c2ccc(N3CCOCC3)cc2c1=O)NCCc1ccccc1 | 9.01
COc1cc(C2NC(=O)CCC2[N+](=O)[O-])cc(OC)c1OC (stereo not shown) | 13.9
CC(=O)Nc1cccc(-c2nc3ccccc3[nH]2)c1 | 7.47
CCOc1cc(CN2CCN(C(=O)c3ccco3)CC2)ccc1OC | -5.41
Clc1ccc(CSc2nnc(CNc3cccc(Cl)c3)o2)cc1 | 6.04
Cc1ccc(-n2c(C)cc(=O)cc2C)c(C)c1 | 1.73
COC(=O)C1C(=O)NCC1c1ccc(C)cc1 (stereo not shown) | 11.9
CSCCC(NC(=O)COc1ccccc1)C(=O)NCc1cccs1 (stereo not shown) | -4.12
Cc1cc(C)cc(OCC(=O)OCCN2C(=O)c3ccccc3C2=O)c1 | -1.93
NC(=O)c1ccc(NC(=O)COC(=O)CCSc2ccccc2)cc1 | 13.9
O=C(COC(=O)c1ccc(F)cc1)Nc1ccc(Cl)cn1 | 3.55
COCCN(C(=S)Nc1ccc(OC)cc1)C(C)c1cccs1 (stereo not shown) | 7.62
Cc1ccc(NC(=O)CSc2nnc(-c3ccccc3C)o2)cc1C | 7.96
CCOc1ccc(OCC)c(NC(=O)CSCCc2ccccn2)c1 | 6.04
COc1cc(/C=N/n2nnnc2N)ccc1OC(C)C | 9.84
O=S(=O)(N/N=C/c1cccc(OC2CSC2)c1)c1ccccc1 | 1.46
O=C(Cc1cccs1)NCCCc1ccccc1 | 6.67
CC1=NN(c2ccc(C)cc2C)C(=O)C1C(c1cccc(O)c1)C1C(=O)N(c2ccc(C)cc2C)N=C1C (stereo not shown) | 1.17
Cc1cccc(NC(=O)COc2ccc3oc4c(c3c2)CCCC4)n1 | 13.2
O=C(/C=C/c1ccc2c(c1)OCO2)Nc1cc(S(=O)(=O)N2CCOCC2)ccc1N1CCOCC1 | -11.9
C=CCNC(=O)CSc1nc2cc(C(=O)OCC)ccc2n1CC | 13.7
O=C(C1=C[C@@H](C2CCCCC2)C[C@@H](OCCCCO)O1)N1CCOCC1 | 8.18
